From PMC2686265, “ATP and MO25α Regulate the Conformational State of the STRADα Pseudokinase and Activation of the LKB1 Tumour Suppressor” (PLoS Biology, 2009)
These are yes or no findings as the source states them, for the method shown. For some assays here: Binding seen in cells or lysates may run through a third protein. Some binding calls cover weakened binding; strength is not graded here. For some assays here: Tags and fused reporters may be left off the sequences shown. Each block holds one binder with its values, some of them ahead of it.

Key:
[1] = target: T1, MO25α (R227A) (residues 1–341) (human, UniProt Q9Y376 1-341, R227A); assay: SPR; BIAcore T100, MO25α amine-coupled to CM5 chip, STRADα injected (5 µM to 0.3 nM), 25°C, 50 mM Tris pH 7.8, 50 mM NaCl, 270 mM sucrose, 1 mM DTT, 0.005% P20, 0.1 mg/ml BSA; without ATP; Kd = kd/ka; both purified
T1 sequence: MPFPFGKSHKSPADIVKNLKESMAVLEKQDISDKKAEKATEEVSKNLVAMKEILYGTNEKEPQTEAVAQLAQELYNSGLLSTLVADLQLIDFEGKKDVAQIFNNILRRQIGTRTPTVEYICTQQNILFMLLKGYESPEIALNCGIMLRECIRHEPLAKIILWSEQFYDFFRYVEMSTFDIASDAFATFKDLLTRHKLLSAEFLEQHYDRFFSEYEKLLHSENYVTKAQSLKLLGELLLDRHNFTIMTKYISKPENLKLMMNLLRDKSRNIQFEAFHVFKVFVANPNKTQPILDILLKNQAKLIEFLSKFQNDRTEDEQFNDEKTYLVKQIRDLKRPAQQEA

[2] = target: T2, MO25α (R227A/M260A) (residues 1–341) (human) (UniProt Q9Y376); assay: as above
T2 sequence: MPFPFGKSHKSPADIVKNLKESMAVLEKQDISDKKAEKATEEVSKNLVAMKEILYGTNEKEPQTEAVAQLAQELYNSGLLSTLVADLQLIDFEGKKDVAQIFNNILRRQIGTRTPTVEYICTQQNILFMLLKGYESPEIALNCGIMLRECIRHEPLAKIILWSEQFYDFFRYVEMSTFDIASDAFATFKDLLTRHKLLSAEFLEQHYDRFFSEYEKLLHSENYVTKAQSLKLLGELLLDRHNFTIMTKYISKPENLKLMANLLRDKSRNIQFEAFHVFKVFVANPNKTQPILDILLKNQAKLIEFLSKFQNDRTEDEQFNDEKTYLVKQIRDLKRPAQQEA

[3] = target: T2, MO25α (R227A/M260A) (residues 1–341) (human); assay: SPR; as a2 but with 100 µM ATP in the running buffer; two-site model where appropriate; both purified
[4] = target: T3, GST-LKB1 (wild type) (human) (UniProt Q15831); assay: pull-down; GST-LKB1 and Flag-STRADα expressed in 293 cells in the absence of MO25α, GST-LKB1 purified on glutathione-Sepharose, immunoblot
T3 sequence: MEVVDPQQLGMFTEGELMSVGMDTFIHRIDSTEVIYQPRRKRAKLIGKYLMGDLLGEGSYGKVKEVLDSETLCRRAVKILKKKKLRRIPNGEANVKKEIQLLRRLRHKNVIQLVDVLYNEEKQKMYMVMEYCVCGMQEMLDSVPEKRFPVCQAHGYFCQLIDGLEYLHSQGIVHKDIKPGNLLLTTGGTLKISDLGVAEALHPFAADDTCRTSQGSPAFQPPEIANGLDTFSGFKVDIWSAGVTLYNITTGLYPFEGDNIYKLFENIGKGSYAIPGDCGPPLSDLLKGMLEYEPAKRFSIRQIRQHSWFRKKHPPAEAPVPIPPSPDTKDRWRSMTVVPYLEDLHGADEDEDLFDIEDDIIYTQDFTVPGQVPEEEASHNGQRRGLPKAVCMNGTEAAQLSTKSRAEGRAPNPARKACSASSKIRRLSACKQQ

[5] = target: T3, GST-LKB1 (wild type) (human); assay: pull-down; GST-LKB1, Flag-STRADα and MO25α (Myc-tagged or untagged) co-transfected in 293 cells, GST-LKB1 purified on glutathione-Sepharose, immunoblot
[6] = target: T4, GST-STRADα (wild type) (human) (UniProt Q7RTN6); assay: pull-down; GST-STRADα and MO25α (Myc-tagged or untagged) co-expressed in 293 cells, lysed 36 h post-transfection, GST-STRADα purified on glutathione-Sepharose, immunoblot
T4 sequence: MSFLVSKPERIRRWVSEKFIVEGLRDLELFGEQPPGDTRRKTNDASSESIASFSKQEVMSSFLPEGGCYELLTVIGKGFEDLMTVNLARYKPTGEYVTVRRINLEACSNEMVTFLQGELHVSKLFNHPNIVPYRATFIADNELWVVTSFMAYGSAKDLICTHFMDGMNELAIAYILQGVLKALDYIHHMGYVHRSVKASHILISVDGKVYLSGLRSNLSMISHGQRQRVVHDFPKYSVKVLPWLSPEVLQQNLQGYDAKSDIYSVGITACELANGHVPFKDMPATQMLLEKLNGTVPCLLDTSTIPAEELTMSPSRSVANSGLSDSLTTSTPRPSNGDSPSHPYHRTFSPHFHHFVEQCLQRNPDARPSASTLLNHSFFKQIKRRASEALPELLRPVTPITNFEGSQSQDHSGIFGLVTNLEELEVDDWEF

[7] = target: T5, LKB1/STRADα complex (GST-LKB1 with Flag-STRADα) (human) (UniProt Q15831+Q7RTN6); assay: pull-down; GST-LKB1, Flag-STRADα and MO25α (Myc-tagged or untagged) co-transfected in 293 cells, GST-LKB1 purified on glutathione-Sepharose, immunoblot
T5 sequence 1: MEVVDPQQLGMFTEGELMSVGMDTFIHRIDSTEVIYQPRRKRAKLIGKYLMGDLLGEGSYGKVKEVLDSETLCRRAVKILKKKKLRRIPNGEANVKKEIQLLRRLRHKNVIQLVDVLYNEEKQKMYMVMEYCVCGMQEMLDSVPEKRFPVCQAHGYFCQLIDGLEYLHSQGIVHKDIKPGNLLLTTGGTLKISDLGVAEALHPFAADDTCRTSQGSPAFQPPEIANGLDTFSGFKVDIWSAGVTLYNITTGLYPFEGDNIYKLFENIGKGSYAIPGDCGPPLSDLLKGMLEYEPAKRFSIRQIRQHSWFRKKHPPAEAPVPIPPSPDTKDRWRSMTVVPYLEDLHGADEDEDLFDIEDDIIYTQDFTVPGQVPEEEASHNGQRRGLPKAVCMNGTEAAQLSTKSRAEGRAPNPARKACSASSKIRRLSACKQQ
T5 sequence 2: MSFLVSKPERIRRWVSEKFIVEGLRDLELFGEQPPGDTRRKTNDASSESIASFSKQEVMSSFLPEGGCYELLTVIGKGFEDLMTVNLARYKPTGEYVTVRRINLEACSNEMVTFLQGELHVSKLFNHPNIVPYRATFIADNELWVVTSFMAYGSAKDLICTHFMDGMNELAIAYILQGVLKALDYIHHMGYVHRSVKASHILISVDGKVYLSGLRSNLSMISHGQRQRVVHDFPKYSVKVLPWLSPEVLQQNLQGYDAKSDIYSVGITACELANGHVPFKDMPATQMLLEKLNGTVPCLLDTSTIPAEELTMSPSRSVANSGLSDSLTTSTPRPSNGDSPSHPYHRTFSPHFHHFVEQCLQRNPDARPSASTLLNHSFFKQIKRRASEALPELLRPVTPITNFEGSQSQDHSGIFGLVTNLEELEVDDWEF

[8] = target: T6, MO25α (WT) (residues 1–341) (human, UniProt Q9Y376 1-341); assay: SEC; gel filtration of separately expressed MO25α beside the His-STRADα/MO25α complex, with molecular mass standards; both purified
T6 chain: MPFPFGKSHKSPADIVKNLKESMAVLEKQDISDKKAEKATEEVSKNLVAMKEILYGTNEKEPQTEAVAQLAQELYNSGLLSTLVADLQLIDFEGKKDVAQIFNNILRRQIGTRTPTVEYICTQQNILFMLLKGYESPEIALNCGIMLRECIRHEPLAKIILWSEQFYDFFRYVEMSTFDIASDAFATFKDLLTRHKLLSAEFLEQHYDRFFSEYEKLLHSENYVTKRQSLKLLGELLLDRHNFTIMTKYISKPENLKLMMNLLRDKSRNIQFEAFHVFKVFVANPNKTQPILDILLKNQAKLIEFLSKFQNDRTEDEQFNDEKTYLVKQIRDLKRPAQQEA

B2: Flag-STRADα (wild type, full-length) (protein, UniProt Q7RTN6 1-431)
chain: MSFLVSKPERIRRWVSEKFIVEGLRDLELFGEQPPGDTRRKTNDASSESIASFSKQEVMSSFLPEGGCYELLTVIGKGFEDLMTVNLARYKPTGEYVTVRRINLEACSNEMVTFLQGELHVSKLFNHPNIVPYRATFIADNELWVVTSFMAYGSAKDLICTHFMDGMNELAIAYILQGVLKALDYIHHMGYVHRSVKASHILISVDGKVYLSGLRSNLSMISHGQRQRVVHDFPKYSVKVLPWLSPEVLQQNLQGYDAKSDIYSVGITACELANGHVPFKDMPATQMLLEKLNGTVPCLLDTSTIPAEELTMSPSRSVANSGLSDSLTTSTPRPSNGDSPSHPYHRTFSPHFHHFVEQCLQRNPDARPSASTLLNHSFFKQIKRRASEALPELLRPVTPITNFEGSQSQDHSGIFGLVTNLEELEVDDWEF
binding [4]: binds | binding [5]: binds

B4: PMSE-STRADα (residues 1–251), Flag-tagged (domain or fragment, UniProt Q7RTN6 1-251)
chain: MSFLVSKPERIRRWVSEKFIVEGLRDLELFGEQPPGDTRRKTNDASSESIASFSKQEVMSSFLPEGGCYELLTVIGKGFEDLMTVNLARYKPTGEYVTVRRINLEACSNEMVTFLQGELHVSKLFNHPNIVPYRATFIADNELWVVTSFMAYGSAKDLICTHFMDGMNELAIAYILQGVLKALDYIHHMGYVHRSVKASHILISVDGKVYLSGLRSNLSMISHGQRQRVVHDFPKYSVKVLPWLSPEVLQQ
binding [5]: no binding

B5: Myc-MO25α (wild type) (protein, UniProt Q9Y376 1-341)
chain: MPFPFGKSHKSPADIVKNLKESMAVLEKQDISDKKAEKATEEVSKNLVAMKEILYGTNEKEPQTEAVAQLAQELYNSGLLSTLVADLQLIDFEGKKDVAQIFNNILRRQIGTRTPTVEYICTQQNILFMLLKGYESPEIALNCGIMLRECIRHEPLAKIILWSEQFYDFFRYVEMSTFDIASDAFATFKDLLTRHKLLSAEFLEQHYDRFFSEYEKLLHSENYVTKRQSLKLLGELLLDRHNFTIMTKYISKPENLKLMMNLLRDKSRNIQFEAFHVFKVFVANPNKTQPILDILLKNQAKLIEFLSKFQNDRTEDEQFNDEKTYLVKQIRDLKRPAQQEA
binding [6]: binds | binding [7]: binds | binding [5]: binds

B6: MO25α (WT) (residues 1–341) (natural protein, human, UniProt Q9Y376 1-341, looked up)
chain: MPFPFGKSHKSPADIVKNLKESMAVLEKQDISDKKAEKATEEVSKNLVAMKEILYGTNEKEPQTEAVAQLAQELYNSGLLSTLVADLQLIDFEGKKDVAQIFNNILRRQIGTRTPTVEYICTQQNILFMLLKGYESPEIALNCGIMLRECIRHEPLAKIILWSEQFYDFFRYVEMSTFDIASDAFATFKDLLTRHKLLSAEFLEQHYDRFFSEYEKLLHSENYVTKRQSLKLLGELLLDRHNFTIMTKYISKPENLKLMMNLLRDKSRNIQFEAFHVFKVFVANPNKTQPILDILLKNQAKLIEFLSKFQNDRTEDEQFNDEKTYLVKQIRDLKRPAQQEA
notes: MO25α, human, residues 1–341 (full length); also called MO25α (WT, wild type); wild-type MO25α; source: E. coli, expressed individually as GST fusion, purified on glutathione-Sepharose, eluted with PreScission protease
binding [8]: no binding

Second part, led by results:

binding [2]: no binding (tested: STRADα up to 5 µM) | binding [3]: no binding (tested: STRADα up to 5 µM)
B1: untagged STRADα (residues 59–431) (domain or fragment)
chain: MSSFLPEGGCYELLTVIGKGFEDLMTVNLARYKPTGEYVTVRRINLEACSNEMVTFLQGELHVSKLFNHPNIVPYRATFIADNELWVVTSFMAYGSAKDLICTHFMDGMNELAIAYILQGVLKALDYIHHMGYVHRSVKASHILISVDGKVYLSGLRSNLSMISHGQRQRVVHDFPKYSVKVLPWLSPEVLQQNLQGYDAKSDIYSVGITACELANGHVPFKDMPATQMLLEKLNGTVPCLLDTSTIPAEELTMSPSRSVANSGLSDSLTTSTPRPSNGDSPSHPYHRTFSPHFHHFVEQCLQRNPDARPSASTLLNHSFFKQIKRRASEALPELLRPVTPITNFEGSQSQDHSGIFGLVTNLEELEVDDWEF
binding [1]: no binding (condition: without ATP; STRADα up to 5 µM)

binding [6]: binds | binding [7]: binds
B3: untagged MO25α(ΔPFPF), expressed in 293 cells (protein, UniProt Q9Y376)
chain: MGKSHKSPADIVKNLKESMAVLEKQDISDKKAEKATEEVSKNLVAMKEILYGTNEKEPQTEAVAQLAQELYNSGLLSTLVADLQLIDFEGKKDVAQIFNNILRRQIGTRTPTVEYICTQQNILFMLLKGYESPEIALNCGIMLRECIRHEPLAKIILWSEQFYDFFRYVEMSTFDIASDAFATFKDLLTRHKLLSAEFLEQHYDRFFSEYEKLLHSENYVTKRQSLKLLGELLLDRHNFTIMTKYISKPENLKLMMNLLRDKSRNIQFEAFHVFKVFVANPNKTQPILDILLKNQAKLIEFLSKFQNDRTEDEQFNDEKTYLVKQIRDLKRPAQQEA

binding [6]: binds | binding [7]: binds
B7: untagged MO25α (wild type), expressed in 293 cells (protein, UniProt Q9Y376 1-341)
chain: MPFPFGKSHKSPADIVKNLKESMAVLEKQDISDKKAEKATEEVSKNLVAMKEILYGTNEKEPQTEAVAQLAQELYNSGLLSTLVADLQLIDFEGKKDVAQIFNNILRRQIGTRTPTVEYICTQQNILFMLLKGYESPEIALNCGIMLRECIRHEPLAKIILWSEQFYDFFRYVEMSTFDIASDAFATFKDLLTRHKLLSAEFLEQHYDRFFSEYEKLLHSENYVTKRQSLKLLGELLLDRHNFTIMTKYISKPENLKLMMNLLRDKSRNIQFEAFHVFKVFVANPNKTQPILDILLKNQAKLIEFLSKFQNDRTEDEQFNDEKTYLVKQIRDLKRPAQQEA
